Experimental data from the supplement of paper PMC10126150.
Values marked as one replicate rest on one cluster of the flow cell; about a third of the high ones do not repeat.

Each sequence was assayed on ATP (assay: switch fluorescence ratio, 500 uM ATP over buffer (Cy3 cluster intensity, sum of 5 cycles each) (fold (ratio)); higher = stronger signal-on switching upon ATP binding; sequences stand for … in TCGTCGGCAGCGTCAGATGTGTATAAGAGACAGTTTTTTTTTTTTTTTTTTTTTTTTT…TC). Conditions: aptamer strand: ATP DNA aptamer (quencher-CACCTGGGGGAGTATTGCGGAGGAAGG + anchor), 100 nM annealed; ATP concentration: 500 uM; one replicate.
Method in brief: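 Switching-strand clusters labelled with Cy3 on a modified Illumina MiSeq flow-cell were annealed to 100 nM quencher-labelled ATP aptamer, imaged in selection buffer, and re-imaged after 15 min with 500 uM ATP at 22 °C. This was done over five cycles with NaOH stripping and re-annealing in between. The fluorescence ratio is summed target-cycle over summed buffer-cycle Cy3 intensity per cluster, averaged per switch-domain sequence, excluding clusters outside 100-1000 RFU.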
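Also: ATP exposure 15 min at 22 °C before imaging.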

Sequence | switch fluorescence ratio
TATTGCATAT | 1.02
TATTGCTGTT | 0.999
TATTGCTTAA | 0.981
TATTGGAGT | 0.997
TATTGGGACG | 0.968
TATTGTGCCG | 0.972
TATTTAAATT | 0.968
TATTTCCCGC | 1.13
TATTTCCCTG | 0.962
TATTTCGTAT | 0.999
TATTTCTGGC | 0.934
TATTTCTTCC | 1.75
TATTTGCATT | 0.987
TATTTTAAT | 0.968
TATTTTGCTA | 0.993
TATTTTGGTA | 0.999
TCAAAACTCC | 1.18
TCAAAAGTGC | 1.01
TCAAATAAAG | 0.997
TCAAATAGCA | 1.01
TCAAATCTTT | 0.991
TCAAATTGTG | 1.02
TCAACATGCA | 0.99
TCAACCCTGC | 1.07
TCAACCGGCA | 1.12

Sequence | switch fluorescence ratio
TCAACCGTA | 1.03
TCAACGATGA | 1.01
TCAACGTGG | 0.955
TCAAGACCAA | 1.01
TCAAGCCAAG | 0.999
TCAAGCCAGT | 0.976
TCAAGCGGAT | 1.01
TCAAGCGTCC | 1.11
TCAAGCTTCT | 1.07
TCAATCACCT | 1.12
TCAATCGCGT | 0.999
TCAATCGGGG | 1.02
TCAATGGCCG | 0.993
TCAATTAGCA | 0.988
TCACAAAACG | 1.06
TCACACACC | 1.46
TCACAGTATC | 1.06
TCACATAATA | 1.06
TCACATCGTC | 1.01
TCACCAAGGT | 1.3
TCACCATGCT | 0.952
TCACCCGTAG | 1.08
TCACGGCTGT | 1.03
TCACGTAGCA | 1.38
TCACGTGAGC | 1.05

Sequence | switch fluorescence ratio
TCACTATCGG | 1.02
TCACTATCTA | 1.06
TCACTCCTAT | 1.07
TCACTTGCTT | 0.981
TCACTTGTGC | 0.983
TCAGAAGCAA | 3.91
TCAGAAGCTA | 2.2
TCAGACCAGG | 1.02
TCAGAGAATT | 1.03
TCAGAGATGG | 0.985
TCAGAGATTA | 0.959
TCAGAGGCAG | 1.02
TCAGAGGTAA | 1.04
TCAGATTTTC | 1.01
TCAGCGCGTT | 0.996
TCAGCGCTTA | 1
TCAGCGTCCG | 0.945
TCAGCTAAAG | 1.01
TCAGCTACGA | 1.15
TCAGCTATGG | 1.08
TCAGCTCAAC | 1.12
TCAGCTCCTA | 1.02
TCAGCTCGGT | 0.998
TCAGCTGTCC | 1
TCAGCTTCCG | 1.18

Sequence | switch fluorescence ratio
TCAGGAACTC | 0.956
TCAGGAGAGA | 0.997
TCAGGATAGT | 1
TCAGGCCTTT | 0.991
TCAGGGGAAT | 0.978
TCAGGGGCAA | 1.39
TCAGGTGGGC | 1.06
TCAGTACACG | 1.04
TCAGTAGGTT | 1.02
TCAGTATAAT | 1.02
TCAGTCATCC | 1.09
TCAGTCCCG | 1
TCAGTCGGCC | 0.991
TCAGTGCGCA | 1.02
TCAGTGCTCG | 0.951
TCAGTGCTCT | 1
TCAGTGGTTT | 1.01
TCAGTGTGCA | 1.01
TCAGTTAACC | 1.03
TCAGTTGGAC | 1.13
TCAGTTTCAT | 0.992
TCATAACCCC | 1.08
TCATAAGGTT | 1.46
TCATACTACT | 1.07
TCATAGGGAC | 1.06

Sequence | switch fluorescence ratio
TCATAGGGT | 1.01
TCATAGGTTA | 0.989
TCATATCGGC | 0.974
TCATATGGTA | 0.963
TCATATGTGC | 0.989
TCATATTCG | 0.998
TCATCAAACG | 1.02
TCATCCGGCG | 1.41
TCATCGATTC | 0.995
TCATCTAGGC | 1.07
TCATGACACG | 1
TCATGTAATG | 1.01
TCATGTAGGA | 1
TCATGTATAT | 0.989
TCATGTGCTA | 1.03
TCATTAAACT | 1.03
TCATTAACTT | 1.04
TCATTACTTA | 1
TCATTAGCGC | 1
TCATTCTTAG | 0.995
TCATTGATAC | 1.09
TCATTGATGG | 0.974
TCATTTGCCC | 0.979
TCATTTTAGA | 0.995
TCATTTTGCT | 1

Sequence | switch fluorescence ratio
TCCAAAGTGA | 1.26
TCCAAGATAA | 1.38
TCCAAGGGAA | 1.08
TCCAAGTGAA | 1.05
TCCACAGTT | 1.01
TCCACGAATT | 1.03
TCCACGCATT | 4.77
TCCACTGAAC | 1.2
TCCACTGAGA | 1.04
TCCAGAAAGT | 0.996
TCCAGAGGGG | 1.03
TCCAGCCAGG | 2.26
TCCAGTGGGT | 1.01
TCCAGTTCGG | 1.02
TCCATAGGC | 1.12
TCCATGACGT | 0.976
TCCATGGAAT | 0.973
TCCATGGCCC | 1.04
TCCATGGCGA | 1.13
TCCATGGTAG | 1.01
TCCATGTGGA | 0.993
TCCATTAAGT | 1.01
TCCATTACAT | 0.973
TCCATTGCGC | 1.2
TCCATTGGAC | 1.02

Sequence | switch fluorescence ratio
TCCATTGGCT | 0.991
TCCATTTGAT | 1.01
TCCCAACGGA | 1.06
TCCCAAGCAT | 2.52
TCCCACATAA | 1.09
TCCCAGCTGC | 2.14
TCCCAGTAAG | 1.05
TCCCCGTGTT | 1.07
TCCCCTGCCA | 1.32
TCCCCTTCAG | 1.02
TCCCGATCAG | 0.998
TCCCGATGAT | 1.03
TCCCGATGGT | 1.02
TCCCGATTCG | 1.04
TCCCGCTCGT | 1.1
TCCCGCTTCT | 1.33
TCCCGTAGGT | 1
TCCCTCCGGC | 1.11
TCCCTCGAGT | 1.06
TCCCTGTCAC | 1.16
TCCCTTTGAT | 1
TCCCTTTTAC | 1.23
TCCGAATCCT | 1.1
TCCGACACAG | 1.52
TCCGAGGTTG | 2.19

Sequence | switch fluorescence ratio
TCCGCCATA | 1.21
TCCGCCTGGG | 1.24
TCCGCTTGGG | 1.21
TCCGGAACAT | 1.38
TCCGGAGGT | 1.08
TCCGGCCATG | 1.18
TCCGGTATGG | 1.02
TCCGGTCCTT | 1.04
TCCGGTCGCA | 2.21
TCCGTAATCG | 1.76
TCCGTACTGA | 1.12
TCCGTATTT | 1.02
TCCGTCAGTG | 1.15
TCCGTCCCGG | 1.07
TCCGTCTGTC | 1.12
TCCGTCTGTG | 1.01
TCCGTGGCGT | 1.11
TCCGTTCATG | 1.06
TCCGTTGAAA | 1.11
TCCGTTGGAT | 0.989
TCCTAATAGC | 1.06
TCCTAGTAGT | 1.02
TCCTATCG | 0.997
TCCTATCGGT | 1.1
TCCTCAGAGT | 1.16
